Measurements reported in patent publication US20180194853A1 (published 2018).

Experiments:
recombinant human IL-2Rβ = target: T1, recombinant human IL-2Rβ (human, UniProt P14784 27-240); experiment: SPR, receptor chain immobilised on the chip, antibody flowed over
T1 construct: Recombinant chain immobilised on the SPR chip and used as ELISA antigen; also called CD122; interleukin 2 receptor β
T1 sequence (looked up): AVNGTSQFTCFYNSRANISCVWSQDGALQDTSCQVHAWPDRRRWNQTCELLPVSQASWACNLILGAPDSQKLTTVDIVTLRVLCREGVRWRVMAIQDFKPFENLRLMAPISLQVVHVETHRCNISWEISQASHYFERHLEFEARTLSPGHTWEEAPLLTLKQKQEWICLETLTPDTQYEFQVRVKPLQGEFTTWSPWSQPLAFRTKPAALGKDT
Procedure: (§1) Association/dissociation of the anti-IL-2Rβ/γc bispecific antibody to/from the receptor chains was measured in Surface Plasmon Resonance using recombinant IL-2Rβ or γc chains immobilised on a chip, and flowing various concentrations of the antibody over the surface.

recombinant human γc = target: T2, recombinant human γc (human, UniProt P31785 23-262); experiment: as above
T2 construct: Recombinant chain immobilised on the SPR chip and used as ELISA antigen; also called common γ chain; CD132
T2 sequence (looked up): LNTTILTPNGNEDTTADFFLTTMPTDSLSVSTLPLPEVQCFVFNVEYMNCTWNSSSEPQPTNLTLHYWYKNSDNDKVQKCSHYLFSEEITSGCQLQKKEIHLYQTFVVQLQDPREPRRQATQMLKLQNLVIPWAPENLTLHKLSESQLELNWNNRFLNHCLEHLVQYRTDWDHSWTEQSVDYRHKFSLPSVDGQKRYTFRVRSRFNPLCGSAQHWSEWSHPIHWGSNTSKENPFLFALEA
Procedure: as §1

B1: bispecific anti-IL-2Rβ/γc antibody P2C4/P1A3 (bispecific antibody)
chain 1: EVQLVQSGAEVKKPGSSVKVSCKASGYTFTNYYMHWVRQAPGQGLEWMGAIMPSRGGTSYPQKFQGRVTMTGDTSTSTVYMELSSLRSEDTAVYYCARGEYYYDSSGYYYWGQGTLVTVSSGGGGSGGGGSGGGGSQSALTQPASVSGSPGQSIAISCTGTSSDIGHYDFVSWYQQHPGTAPKLIIYDINNRPSGISNRFSGSKSDNMASLTISGLQPEDEADYYCSAYTSSDTLVFGGGTKLTVLNSGAGTA[not shown - human IgG1 Fc with changes and a few adjoining residues]
chain 2: QVQLQQWGAGLLKPSETLSLTCAVYGGSFSGYYWSWIRQPPGKGLEWIGEINHSGSTNYNPSLKSRATISVDTSKNQFSLKLSSVTAADTAVYYCATSPGGYSGGYFQHWGQGTLVTVSSGGGGSGGGGSGGGGS[not shown - about 100 residues]YCMQGTHWPWTFGQGTKVEIKNSGAGTAAATHTCPPCPAPEAAGGPSVFLFPPKPKDTLMISRTPEVTCVVVDVSHEDPEVKFNWYVDGVEVHNAKTKPREEQYNSTYRVVSVLTVLHQDWLNGKEYKCKVSNKALPAPIEKTISKAKGQPREPQVCTLPPSRDELTKNQVSLSCAVKGFYPSDIAVEWESNGQPENNYKTTPPVLDSDGSFFLVSKLTVDKSRWQQGNVFSCSVMHEALHNHYTQKSLSLSPGK
notes: Knob-in-hole monovalent bispecific scFv-Fc on a human IgG1 Fc with LALA; also called anti-IL-2Rβ/γc bispecific antibody; Mega2; copies: 1 + 1
B1 gave a Kd (recombinant human IL-2Rβ) of 143 nM and a Kd (recombinant human γc) of 20.9 nM.

B2: bispecific anti-IL-2Rβ/γc antibody P2D12/P1A3 (bispecific antibody)
chain 1: HVQLVETGGGLVQPGGSLRLSCAASGFTFSSYAMSWVRQAPGKGLEWVSAISGSGGSTYYADSVKGRFTISRDNSKNTLYLQMNSLRAEDTAVYYCARDLGDYWGQGTLVTVSSGGGGSGGGGSGGGGSDIQLTQSPSSLSASVGDRVTITCQASQDIGNYLNWYQLKPGKAPKLLIYDASNLETGVPSRFSGSGSGTDFTFTISSLQPEDIATYYCLQLYDYPLTFGGGTKVEIKNSGAGTA[not shown - human IgG1 Fc with changes and a few adjoining residues]
chain 2: QVQLQQWGAGLLKPSETLSLTCAVYGGSFSGYYWSWIRQPPGKGLEWIGEINHSGSTNYNPSLKSRATISVDTSKNQFSLKLSSVTAADTAVYYCATSPGGYSGGYFQHWGQGTLVTVSSGGGGSGGGGSGGGGS[not shown - about 100 residues]YCMQGTHWPWTFGQGTKVEIKNSGAGTAAATHTCPPCPAPEAAGGPSVFLFPPKPKDTLMISRTPEVTCVVVDVSHEDPEVKFNWYVDGVEVHNAKTKPREEQYNSTYRVVSVLTVLHQDWLNGKEYKCKVSNKALPAPIEKTISKAKGQPREPQVCTLPPSRDELTKNQVSLSCAVKGFYPSDIAVEWESNGQPENNYKTTPPVLDSDGSFFLVSKLTVDKSRWQQGNVFSCSVMHEALHNHYTQKSLSLSPGK
B2 gave a Kd (recombinant human IL-2Rβ) of 181 nM and a Kd (recombinant human γc) of 78.7 nM.

B3: bispecific anti-IL-2Rβ/γc antibody P1G11/P1A3 (bispecific antibody)
chain 1: QVQLQQWGAGLLKPSETLSLTCAVYGGSFSGYYWSWIRQPPGKGLEWIGEINHSGSTNYNPSLKSRVTISVDTSKNQFSLKLSSVTAADTAVYYCARSSSGDAFDIWGQGTMVTVSSGGGGSGGGGSGGGGSNFMLTQPHSVSESPGKTVTISCTRSSGSIASNYVQWYQQRPGSSPTTVIFDDNQRPTGVPDRFSAAIDTSSSSASLTISGLTAEDEADYYCQSSHSTAVVFGGGTKLTVLNSGAGTA[not shown - human IgG1 Fc with changes and a few adjoining residues]
chain 2: QVQLQQWGAGLLKPSETLSLTCAVYGGSFSGYYWSWIRQPPGKGLEWIGEINHSGSTNYNPSLKSRATISVDTSKNQFSLKLSSVTAADTAVYYCATSPGGYSGGYFQHWGQGTLVTVSSGGGGSGGGGSGGGGS[not shown - about 100 residues]YCMQGTHWPWTFGQGTKVEIKNSGAGTAAATHTCPPCPAPEAAGGPSVFLFPPKPKDTLMISRTPEVTCVVVDVSHEDPEVKFNWYVDGVEVHNAKTKPREEQYNSTYRVVSVLTVLHQDWLNGKEYKCKVSNKALPAPIEKTISKAKGQPREPQVCTLPPSRDELTKNQVSLSCAVKGFYPSDIAVEWESNGQPENNYKTTPPVLDSDGSFFLVSKLTVDKSRWQQGNVFSCSVMHEALHNHYTQKSLSLSPGK
For B3, the Kd (recombinant human IL-2Rβ) was 128 nM and the Kd (recombinant human γc) was 337 nM.
